Test results from PubChem BioAssay (NCI).
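These data come from cells grown in 96-well plates and exposed to compound for 48 hours at five concentrations. At the GI50, growth is halved. TGI is the concentration that stops growth completely.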

Tested on: NCI-H322M lung
Assay: NCI-60 cell line screen, 48 h

**Q.** For O=C(COc1ccc(NC(=O)Nc2ccc(Cl)cc2)cc1)N=Nc1c(O)[nH]c2ccc([N+](=O)[O-])cc12, which GI50 is on record?
**A.** The GI50 was 5.26 µM.

**Q.** And the TGI?
**A.** The TGI was 37.7 µM.

**Q.** For CCCS(=O)(=O)c1oc(-c2ccc(F)cc2)nc1S(=O)(=O)c1ccc(F)cc1, which GI50 is on record?
**A.** Its GI50 is 14.4 µM.

**Q.** And the TGI?
**A.** Its TGI is 27.5 µM.

**Q.** Which GI50 does the source give for CN1C(=O)N(C)C2SC(N/N=C/c3cccs3)=NC21 (stereo not given) here?
**A.** The GI50 was 25.5 µM.

**Q.** What about the TGI of the same molecule?
**A.** Its TGI is greater than 100 µM.

**Q.** COc1ccc2[nH]cc(-c3cc(N)n4nc(-c5c[nH]c6ccccc56)cc4n3)c2c1 was tested. Which GI50 did it give?
**A.** Its GI50 is 4.25 µM.

**Q.** And the TGI?
**A.** Its TGI is 16.6 µM.

**Q.** What does the source list for CCCn1c(=O)c2[nH]c(-c3ccc(OCc4nc5ccc(F)cc5[nH]4)cc3)nc2n(CCC)c1=O?
**A.** GI50: 22.5 µM; TGI: > 100 µM
